Hit rate of the full screen: of about 310,000 compounds, about 14,000 (4.5%) showed an effect of 50% or more. Effects have a minus sign here. This is one part of the list.
Target: human ether-à-go-go-related gene (hERG) potassium channel (human, UniProt Q12809)
Assay: primary screen, population patch clamp on CHO cells stably expressing hERG
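Further: peak tail current of the secondary pulse compared with the same well before compound.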

human ether-à-go-go-related gene (hERG) potassium channel, sequence (Q12809 whole entry, looked up): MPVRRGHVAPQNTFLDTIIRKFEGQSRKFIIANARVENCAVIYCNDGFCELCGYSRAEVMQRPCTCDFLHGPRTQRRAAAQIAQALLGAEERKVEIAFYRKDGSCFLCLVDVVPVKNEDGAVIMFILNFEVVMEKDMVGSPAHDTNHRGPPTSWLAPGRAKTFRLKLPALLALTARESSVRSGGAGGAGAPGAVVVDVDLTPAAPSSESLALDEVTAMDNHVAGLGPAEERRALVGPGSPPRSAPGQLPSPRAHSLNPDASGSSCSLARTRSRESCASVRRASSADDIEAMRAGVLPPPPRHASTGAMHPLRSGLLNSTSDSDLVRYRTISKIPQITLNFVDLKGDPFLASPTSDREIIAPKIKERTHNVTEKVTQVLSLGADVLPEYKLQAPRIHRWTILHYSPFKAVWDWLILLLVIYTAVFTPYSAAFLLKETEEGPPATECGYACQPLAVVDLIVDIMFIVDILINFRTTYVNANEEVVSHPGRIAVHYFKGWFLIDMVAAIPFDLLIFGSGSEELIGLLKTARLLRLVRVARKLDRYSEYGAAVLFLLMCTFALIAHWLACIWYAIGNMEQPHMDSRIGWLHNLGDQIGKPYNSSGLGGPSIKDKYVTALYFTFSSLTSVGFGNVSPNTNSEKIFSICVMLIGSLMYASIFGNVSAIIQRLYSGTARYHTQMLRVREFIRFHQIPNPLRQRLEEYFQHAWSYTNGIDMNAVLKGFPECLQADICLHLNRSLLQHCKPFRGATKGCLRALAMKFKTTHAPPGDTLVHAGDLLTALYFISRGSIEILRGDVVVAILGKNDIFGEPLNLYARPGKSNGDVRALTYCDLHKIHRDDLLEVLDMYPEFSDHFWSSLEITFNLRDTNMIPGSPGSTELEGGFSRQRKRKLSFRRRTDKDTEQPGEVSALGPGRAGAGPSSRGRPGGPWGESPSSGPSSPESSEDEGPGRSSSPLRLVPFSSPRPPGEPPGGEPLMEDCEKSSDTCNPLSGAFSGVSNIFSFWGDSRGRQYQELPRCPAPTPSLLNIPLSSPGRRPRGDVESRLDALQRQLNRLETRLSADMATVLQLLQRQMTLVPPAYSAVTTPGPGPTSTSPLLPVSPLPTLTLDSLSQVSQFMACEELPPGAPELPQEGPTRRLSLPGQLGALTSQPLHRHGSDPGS

Row | Structure (SMILES) | hERG current change (%, negative = inhibition) at 10uM
1 | CCOc1cccc(/C=N/NC(=O)C2CCCC2)c1O | 11.1%
2 | O=S(=O)(c1ccc(Oc2ccc(S(=O)(=O)N(CCO)CCO)cc2)cc1)N(CCO)CCO | 18.6%
3 | CC(=O)N/C(=C/c1ccc2c(c1)OCO2)C(=O)N1CCOCC1 | -9.95%
4 | CC(C)NC(=O)CSc1nnc(-c2ccco2)n1N | 14.4%
5 | COCC1CCCN(Cc2cn(Cc3ccccc3)nc2-c2cc3ccccc3o2)C1 (centres unmarked) | -72.8%
6 | Cc1sc2ncnc(NCCCn3ccnc3)c2c1C | -46.1%
7 | CCC(C)[C@H](NC(=O)NCCCc1ccccc1)C(=O)OC (some centres unmarked) | -12.9%
8 | C#CCOCCOCCOCCNc1nc(N2CCN(C(=O)CCCCCCCCCCNC(=O)[C@H]([C@@H](C)CC)n3cc(CCCCCN)nn3)CC2)nc(N2CCN(C(=O)CCCCCCCCCCNC(=O)[C@H](CO)n3cc(CCCCCN)nn3)CC2)n1 | -3.99%
9 | CCNC(=O)C1CCCN1S(=O)(=O)c1ccc(OC)cc1 (centres unmarked) | 17.6%
10 | CSC1=NCCN1S(=O)(=O)c1ccc(C)cc1 | -13.8%
11 | CCN(C(=O)c1cn(C)c(=O)c2cc(OC)c(OC)cc12)c1cc(C)ccc1C | -0.626%
12 | CCNc1nc(N2CCCCC2)nc(-n2nnc(C(=O)OCC)c2C)n1 | -42.3%
13 | COC(=O)C1=CO[C@@H](C)[C@@H]2CN3CC[C@]4(C(=O)Nc5ccccc54)[C@@H]3C[C@H]12 | 5.28%
14 | CC(C)[C@H](NC(=O)NCc1ccc(Cl)cc1)C(=O)O | 2.45%
15 | Cc1cc(OCCCCN2C(=O)NC(C)(C)C2=O)cc(C)c1Cl | -8.79%
16 | C[N+]1(C2CCC3CCCC2C3O)CCCCC1.[I-] (centres unmarked) | 17.7%
17 | CN(C)c1ccc(/C=N/NC(=O)c2cccc(N3CCCC3=O)c2)cc1 | 12.7%
18 | NC(=O)Cc1ncc(C(F)(F)F)cc1Cl | 21.8%
19 | CN(C)CCOc1cccc(Br)c1.O=C(O)C(=O)O | 0.472%

Row | Structure (SMILES) | hERG current change (%, negative = inhibition) at 10uM
20 | CC(=O)c1c(C)oc2c1cc(NS(=O)(=O)c1ccc(C(=O)O)cc1)c1ccccc12 | 14.3%
21 | CCOC(=O)c1sc2ncn(/N=C/c3cccnc3)c(=O)c2c1C | -16.1%
22 | CC(C)(C)C1c2[nH]c3ccccc3c2CCN1CCCn1cccn1 (centres unmarked) | -19.5%
23 | Cc1ccc(CN2CCN(Cc3ccc4ncccc4c3)CC2CCO)cc1 (centres unmarked) | -58.9%
24 | O=C(Nc1cccc(Cl)c1)C1C2C=CC3(O2)C1C(=O)N(CCCN1CCCCC1)C3C(=O)NC1CCCCC1 (centres unmarked) | 4.87%
25 | O=c1cc(N2CCC(Cc3ccccc3)CC2)[nH]c(=O)n1C1CCCCC1 | 10.3%
26 | Cc1nn(C)c(C(=O)Nc2ccc(Cn3cccn3)cc2)c1[N+](=O)[O-] | -7.07%
27 | O=C(Oc1cc(=O)oc2c1c(=O)n1c3c(cccc23)CC1)c1ccccc1 | 1.43%
28 | CN(CC(=O)Nc1ccc(Cl)cc1)C(=O)CCC1CCCC1 | 13.2%
29 | CCn1c(SCC(=O)c2ccc(Cl)cc2)nnc1C(C)C | -2.46%
30 | O=C(NC1CCCC1)c1csc2c1CCCC2 | -4.53%
31 | CCn1cc(CNC(=S)Nc2cccc3ccccc23)cn1 | 0.0822%
32 | CC(C)c1ccccc1NC(=O)Cn1c(/C=C/c2ccccc2)nc2ccccc21 | 24.7%
33 | CC(=O)N(CCC(Cc1ccccc1)c1ccc2c(c1)OCO2)Cc1ccccc1F (centres unmarked) | 7.53%
34 | O=C(O)c1cc(-c2ccc(Cl)cc2)n(-c2ccc(Cl)cc2)n1 | 38.2%
35 | Cc1ccc(C2(COC(=O)C(C)C)CO2)c(OC(=O)C(C)C)c1 (centres unmarked) | 2.15%
36 | Cc1ccc(-c2cc(C(=O)O)n[nH]2)s1 | 11.5%
37 | O=C(CC1C(=O)CCCC1=O)c1ccccc1 | 25.1%
38 | Cc1ccc(-n2cc(C(=O)c3ccc4ccccc4c3O)cn2)cc1 | 8.15%

Row | Structure (SMILES) | hERG current change (%, negative = inhibition) at 10uM
39 | Cc1cc(OCCOCCN(C)C)ccc1Cl.O=C(O)C(=O)O | -9.75%
40 | COc1cccc2c1OCC(C(=O)Nc1nccs1)=C2 | -0.366%
41 | COCCNCC(=O)N1c2ccccc2Sc2ccccc21 | 3.39%
42 | CC(=O)c1c(C)[nH]c(C(=O)COc2cc(C)cc(C)c2)c1C | 10.3%
43 | O=C1Nc2cc(Cl)cnc2N2CCCC12 (centres unmarked) | -9.32%
44 | CCOC(=O)[C@@H]1[C@H]2COc3ccccc3[C@@H]2N2C(=O)N(c3ccc(F)cc3)C(=O)[C@]12C | -2.61%
45 | O=C(CSc1nc2ccccc2s1)Nc1ccc(Cl)c(C(=O)O)c1 | 7.61%
46 | Cc1ccc(C)c(CN2C(=O)C(C)Oc3ccc(C)cc32)c1 (centres unmarked) | 5.67%
47 | Cc1nn(CCCC(=O)NCc2ccccc2)c(=O)c2nn(-c3ccccc3)c(C)c12 | 4.95%
48 | O=C1CCCN1CCCn1cnc2c([nH]c3ccc(F)cc32)c1=O | -42.2%
49 | CN(C)S(=O)(=O)c1cccc(NC(=O)c2ccc(S(=O)(=O)N3CCCCC3)cc2)c1 | 8.47%
50 | CCOC(=O)c1nn(-c2ccccc2)c2nnc(Cc3ccc(C)cc3)c(=O)n12 | -30.2%
51 | Cc1nn(Cc2ccccc2)c(Cl)c1/C=C/C(=O)OCC(=O)NC(C)C(C)C (centres unmarked) | 16%
52 | COc1ccc(S(=O)(=O)N2CCOC23CCN(S(=O)(=O)c2ccc(C)cc2)CC3)cc1 | -1.28%
53 | C[C@@H]1NC(=O)N(c2ccc(F)cc2)C1=O | 14.7%
54 | CCOCCCNC(=O)c1cc(C)nn1-c1ccccc1 | 11%
55 | O=C(c1ccccc1C(=O)N1CCN(c2ccccc2F)CC1)N1CCN(c2ccccc2F)CC1 | -31%
56 | Nc1nnc(SCC(=O)OCC(=O)Nc2ccccc2)s1 | 6.65%
